{
  "source": "the supplement of paper PMC11417369",
  "note": "± gives the standard deviation of the averaged measurements. The list shows a part of the results.",
  "data": [
    {"system": "PfAP2-G AP2 domain (GST-tagged)", "test": "gcPBM binding intensity (ln(normalized median fluorescence intensity)); higher = stronger DNA binding", "in_short": "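In this array assay, P. falciparum DNA-binding domains with a GST tag, expressed in E. coli, were applied for 1 h to primer-extended double-stranded 36-bp intergenic genomic probes and negative controls on an Agilent 4 × 180k array. Bound protein was visualised with Alexa488 anti-GST antibody at 488 nm. Binding intensity is the highest Masliner-normalised natural-log median intensity across replicate spots of either probe orientation.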", "values": [
      {"sequence": "ATTATATTAACAATGACATGCAATTCTTAATCCTTA [TGCATGCA_site648]", "gcPBM binding intensity (ln)": "9.99 ± 0.057"},
      {"sequence": "ATAAGAATCATATTTAAACACACATACATATATATA [CACACA_site9106]", "gcPBM binding intensity (ln)": "9.895 ± 0.049"},
      {"sequence": "AGAAAGAAGATATATACACACAAAAAAAGATATATA [CACACA_site6779]", "gcPBM binding intensity (ln)": "9.955 ± 0.035"},
      {"sequence": "TATAAATATTTATACACACACACATTAATACCTATA [CACACA_site7604]", "gcPBM binding intensity (ln)": "10.28 ± 0.085"},
      {"sequence": "AAAAGAAGATAATACAGTACAGAATAATATAAAATA [XGTACX_site5962]", "gcPBM binding intensity (ln)": "10.8 ± 0.33"},
      {"sequence": "TTCTTTCTAGAATATTGTACATATATTGTTATTATA [XGTACX_site8425]", "gcPBM binding intensity (ln)": "11 ± 0.45"},
      {"sequence": "CACAAACAAAAACACACACACACACCGACAAAAATG [CACACA_site5362]", "gcPBM binding intensity (ln)": "10.5 ± 0.38"},
      {"sequence": "AAATAAAATAAATAATATAAAATAATATATAAAAAA [CACACA_negctrl_site1777]", "gcPBM binding intensity (ln)": "9.415 ± 0.049"},
      {"sequence": "TTTTGTTAAAAAGATGTATATTTTATAAATATTTAT [CACACA_negctrl_site101]", "gcPBM binding intensity (ln)": "9.66 ± 0.16"},
      {"sequence": "AACACCAATTCATATGCACACACATCTGCATATTAT [CACACA_site8523]", "gcPBM binding intensity (ln)": "10.12 ± 0.078"},
      {"sequence": "TTTATAAATATTCTCACACACTTTTTATTTTAACAA [CACACA_site6454]", "gcPBM binding intensity (ln)": "9.94 ± 0.042"},
      {"sequence": "TATAGAAGCAAATTATGTACACAATATGGAAAATCA [XGTACX_site3345]", "gcPBM binding intensity (ln)": "11.4 ± 0.86"},
      {"sequence": "CATACATATAAACACACACACACACCCACCCACAAA [CACACA_site8059]", "gcPBM binding intensity (ln)": "10.5 ± 0.39"},
      {"sequence": "TAGTTAGCCCAAGGGGTGCTAATTACTATCTAAATA", "gcPBM binding intensity (ln)": "9.99 ± 0.3"},
      {"sequence": "TAATGTATCTAAAATTGTACAAATATAAATATAAAT [XGTACX_site2764]", "gcPBM binding intensity (ln)": "10.9 ± 0.49"},
      {"sequence": "GTCGAGGATATATAAAGTACATATATATATATGATA [XGTACX_site1128]", "gcPBM binding intensity (ln)": "11.1 ± 0.71"},
      {"sequence": "GTGTCAAATTTTATAACACACAAAAGGTTATATAAG [CACACA_site7839]", "gcPBM binding intensity (ln)": "10.09 ± 0.078"},
      {"sequence": "ATAGTTTCTGGTAGCTGTACGAGTCGTAGAGTGCAG [XGTACX_site2022]", "gcPBM binding intensity (ln)": "11.4 ± 0.64"},
      {"sequence": "TAGTTACCTTAATATTGTACTTTTCTTTCATATATG [XGTACX_site1309]", "gcPBM binding intensity (ln)": "11.3 ± 0.8"},
      {"sequence": "CACTAAATAAGGAAAGTGCATAAAATAAAGGTTATA [GTGCAC_site9793]", "gcPBM binding intensity (ln)": "10.2 ± 0.15"},
      {"sequence": "ATTTAAAAAATATATTGTACATATTTTATTATGTTT [XGTACX_site2984]", "gcPBM binding intensity (ln)": "11 ± 0.63"},
      {"sequence": "AAAAAAAAAAAAAAAAAAAAAAAAAAATGAGATACA [GTGCAC_negctrl_site160]", "gcPBM binding intensity (ln)": "11 ± 0.65"},
      {"sequence": "TATATATATAAATACACACACACAAAAAAAAAAAAA [CACACA_site4930]", "gcPBM binding intensity (ln)": "9.96 ± 0.5"},
      {"sequence": "AATTTAATTGTGAGAGTGCGTACTGCTCCACATATA", "gcPBM binding intensity (ln)": "11.3 ± 0.94"},
      {"sequence": "ATGTGTTTGTATATATGTACATATTTATGTTATTTC [XGTACX_site6960]", "gcPBM binding intensity (ln)": "11.4 ± 0.62"},
      {"sequence": "TTTTGATATATGAATATTAAGTTATATAATATTTTA [TGCATGCA_negctrl_site39]", "gcPBM binding intensity (ln)": "9.51 ± 0.16"},
      {"sequence": "AAAAGGATATATGAAAGTACAAAGGTATAGTATATT [XGTACX_site7385]", "gcPBM binding intensity (ln)": "10.8 ± 0.37"},
      {"sequence": "TACAGTAAAAATAGTTGTACTTGTTTATTTCTTCTT [XGTACX_site7674]", "gcPBM binding intensity (ln)": "11.3 ± 0.88"},
      {"sequence": "ATGATATATTTAATAGTGCACTAATTAAAATTATTA [GTGCAC_site9418]", "gcPBM binding intensity (ln)": "10.3 ± 0.39"},
      {"sequence": "ATCTTATCATTTTAAAGTACATAATTAATTCTTTTT [XGTACX_site3999]", "gcPBM binding intensity (ln)": "11.2 ± 0.67"},
      {"sequence": "TATAACAAATAAAAATGTACATATATATAATATATA [XGTACX_site6173]", "gcPBM binding intensity (ln)": "11.1 ± 0.56"},
      {"sequence": "ATAATACCAGAATAGATTTAAATGAATATTTTATTT [CACACA_negctrl_site476]", "gcPBM binding intensity (ln)": "9.32 ± 0.7"},
      {"sequence": "GGTTATATGATAGGATGTACAATTAAAAGTAAATAT [XGTACX_site5083]", "gcPBM binding intensity (ln)": "11 ± 0.57"},
      {"sequence": "TTATTATTCTTAAGGATATAACAAAAAAGAAAAATT [CACACA_negctrl_site1402]", "gcPBM binding intensity (ln)": "9.97 ± 0.18"},
      {"sequence": "TCCTATAAACAAATTTGTACATATAAGAATATATTC [XGTACX_site3892]", "gcPBM binding intensity (ln)": "10.8 ± 0.55"},
      {"sequence": "TATTTATATTTATATACACACATATATACCTATATA [CACACA_site7820]", "gcPBM binding intensity (ln)": "9.9 ± 0.071"},
      {"sequence": "GATTATTTTAGAAGTACACACATTTATATATAATAA [CACACA_site5429]", "gcPBM binding intensity (ln)": "11.5 ± 0.96"},
      {"sequence": "TATTCTAGAATTTTAACACACAAGAATATAAACTTT [CACACA_site6757]", "gcPBM binding intensity (ln)": "9.82 ± 0.11"},
      {"sequence": "ATTTTTAAATACAGTACACACATGGGTTTAAATTAT [CACACA_site2884]", "gcPBM binding intensity (ln)": "11.2 ± 0.79"},
      {"sequence": "TAAAATATAATGATCACACATATAAACAAGTGGGTA [CACACA_site4651]", "gcPBM binding intensity (ln)": "9.99 ± 0.057"},
      {"sequence": "GCCGCACCCAGATACGCACACAAGAAAAAAATATTC [CACACA_site3456]", "gcPBM binding intensity (ln)": "10.7 ± 0.47"},
      {"sequence": "TATGGATAAATAAATACACACATAAATTTAAATATA [CACACA_site1282]", "gcPBM binding intensity (ln)": "10.04 ± 0.078"},
      {"sequence": "TATAAACGCACCTACACACACAACGTAAATGCATTG [CACACA_site7120]", "gcPBM binding intensity (ln)": "10.3 ± 0.24"},
      {"sequence": "TGAACATTATAGAAAAGTACTTAGTTTTTAAAAAGA [XGTACX_site6864]", "gcPBM binding intensity (ln)": "11.2 ± 0.78"},
      {"sequence": "TATTCAAAACGGTATTGTACAAATTTTATAATTTAA [XGTACX_site6928]", "gcPBM binding intensity (ln)": "10.9 ± 0.43"},
      {"sequence": "TTTTTTTTTTTTTACTGTACTTAATAAGATTGAATA [XGTACX_site2384]", "gcPBM binding intensity (ln)": "11.4 ± 1.1"},
      {"sequence": "TATAAAAAAAAAAAAAAAAAAAAAAAAAAAAAAAAA [TGCATGCA_negctrl_site42]", "gcPBM binding intensity (ln)": "9.71 ± 0.042"},
      {"sequence": "GTTTATATGTTCATAGTGCATATATGTTGATTTATT", "gcPBM binding intensity (ln)": "9.965 ± 0.064"},
      {"sequence": "ATAAATATTATTTTACGTACATATTTATGAAGTATT [XGTACX_site8746]", "gcPBM binding intensity (ln)": "11.3 ± 0.81"},
      {"sequence": "CAGGAGAGAAAATATCGTACAAGCAAAAATAAGTGG [XGTACX_site8557]", "gcPBM binding intensity (ln)": "11.1 ± 0.64"},
      {"sequence": "GTAGAGAAAAAAATGTGGACACAAAAAATAAAAAGG [XGTACX_site4058]", "gcPBM binding intensity (ln)": "11.6 ± 0.95"},
      {"sequence": "TTTTTTTTTTTTTGCACACACATATATAAATATATA [CACACA_site3949]", "gcPBM binding intensity (ln)": "9.95 ± 0.44"},
      {"sequence": "TATATTGCAAAAAGTACACACATAAATAAATACATA [CACACA_site6589]", "gcPBM binding intensity (ln)": "11.6 ± 1.1"},
      {"sequence": "TATTATTTTAAGATTGTTTATGTAAAGAATTATGAA [CACACA_negctrl_site445]", "gcPBM binding intensity (ln)": "9.84 ± 0.28"},
      {"sequence": "TGTGTATATATGCTGGTGCAACTTTAAAAAATAATC", "gcPBM binding intensity (ln)": "10.2 ± 0.3"},
      {"sequence": "AAATTATATACCACAGTGCAAAAGGCAGGTATACGT", "gcPBM binding intensity (ln)": "10.3 ± 0.13"},
      {"sequence": "TATTTATTTATTTTGTTATAATTAAAATGGATACAT [XGTACX_negctrl_site387]", "gcPBM binding intensity (ln)": "9.97 ± 0.32"}
    ]}
  ]
}
